Patent publication US20250277055A1 (SAMSUNG BIOLOGICS, published 2025)

Target: T1, VEGF (UniProt P15692-4 27-191)
T1 sequence (looked up): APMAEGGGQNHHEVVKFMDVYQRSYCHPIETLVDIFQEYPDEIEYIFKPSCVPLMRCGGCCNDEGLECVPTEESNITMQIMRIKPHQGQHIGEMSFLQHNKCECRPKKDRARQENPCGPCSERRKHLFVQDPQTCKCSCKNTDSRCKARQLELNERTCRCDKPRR
Experiment: cell-based or functional assay

B1: R-SBL6 (bispecific antibody, human IgG1, human IgG4, kappa)
heavy 1: [letters of about 120 residues not shown]ASPREPQVCTLPPSREEMTKNQVSLSCAVKGFYPSDIAVEWESNGQPENNYKTTPPVLDSDGSFFLVSKLTVDKSRWQQGNVFSCSVMHEALHNHYTQKSLSLSPGKGGGGSGGGGSASTKGPSVFPLAPSSRSTSESTAALGCLVKDYFPEPVTVSWNSGALTSGVHTFPAVLQSSGLYSLSSVVTVPSSSLGTKTYTCNVDHKPSNTKVDKRVESKYGPPCPPCPAPELLGGPSVFLFPPKPKDTLMISRTPEVTCVVVDVSHEDPEVKFNWYVDGVEVHNAKTKPREEQYNSTYRVVSVLTVLHQDWLNGKEYKCKVSNKALPAPIEKTISKAKGQPREPQVYTLPPSREEMTKNQVSLSCAVKGFYPSDIAVEWESNGQPENNYKTTPPVLDSDGSFFLVSKLTVDKSRWQQGNVFSCSVMHEALHNHYTQKSLSLSPGK
light 1: [letters of about 100 residues not shown]RTPREPQVYTLPPCREEMTKNQVSLWCLVKGFYPSDIAVEWESNGQPENNYKTTPPVLDSDGSFFLYSKLTVDKSRWQQGNVFSCSVMHEALHNHYTQKSLSLSPGKGGGGSGGGGSRTVAAPSVFIFPPSDEQLKSGTASVVCLLNNFYPREAKVQWKVDNALQSGNSQESVTEQDSKDSTYSLSSTLTLSKADYEKHKVYACEVTHQGLSSPVTKSFNRGES
heavy 2: EVQLVESGGGLVQPGGSLRLSCAASGYTFTNYGMNWVRQAPGKGLEWVGWINTYTGEPTYAADFKRRFTFSLDTSKSTAYLQMNSLRAEDTAVYYCAKYPHYYGSSHWYFDVWGQGTLVTVSSASTKGPSVFPLAPSSKSTSGGTAALGCLVKDYFPEPVTVSWNSGALTSGVHTFPAVLQSSGLYSLSSVVTVPSSSLGTQTYICNVNHKPSNTKVDKKV[letters of human IgG1 Fc with changes not shown]
light 2: DIQMTQSPSSLSASVGDRVTITCSASQDISNYLNWYQQKPGKAPKVLIYFTSSLHSGVPSRFSGSGSGTDFTLTISSLQPEDFATYYCQQYSTVPWTFGQGTKVEIKRTVAAPSVFIFPPSDEQLKSGTASVVCLLNNFYPREAKVQWKVDNALQSGNSQESVTEQDSKDSTYSLSSTLTLSKADYEKHKVYACEVTHQGLSSPVTKSFNRGEC
How did the “IC50 (nM) in HUVEC proliferation assay” value turn out when B1 was run?
Its value is 6.77 nM.
